“And” between values parts separate entries of the source, which are not always exact repeats. Identical values can stand only once. The whole screen tested about 370,000 compounds, of which about 150 (0.041%) were called active. Inconclusive results, whose numbers are uncertain, are shown with a selection of clear calls. The call rests on the fitted dose curve; in most records, active means well fitted inhibition curve with a large enough effect; inconclusive means small, poorly fitted or top-dose-only effect; inactive means flat fitted curve, though single readings scatter. Potencies of inconclusive entries are doubtful fits and often do not repeat.
molecular target: Beta-lactamase (Escherichia coli (strain K12)) (UniProt P00811); assay: qHTS Inhibitors of AmpC Beta-Lactamase (assay with detergent); details: AmpC hydrolysis of nitrocefin, absorbance 480 nm, 0.01% Triton; series mostly up to 114 µM; further: nearly all actives have a fitted effect of over 25% in size
Chain of UniProt P00811 (P00811 whole entry, looked up): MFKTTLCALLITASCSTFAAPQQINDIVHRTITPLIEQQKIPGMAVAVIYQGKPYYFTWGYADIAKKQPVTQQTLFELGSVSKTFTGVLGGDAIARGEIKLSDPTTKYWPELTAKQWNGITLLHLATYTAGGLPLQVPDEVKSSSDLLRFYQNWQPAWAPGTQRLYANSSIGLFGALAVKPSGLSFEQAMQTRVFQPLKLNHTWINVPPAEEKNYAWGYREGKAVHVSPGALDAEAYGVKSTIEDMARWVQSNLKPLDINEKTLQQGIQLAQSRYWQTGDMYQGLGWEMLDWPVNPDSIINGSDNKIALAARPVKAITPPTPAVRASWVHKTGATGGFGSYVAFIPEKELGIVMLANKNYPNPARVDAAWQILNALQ
In short: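 AmpC (5.3 nM in the dispensed reagent) in 20 mM phosphate pH 7.0 with 0.01% (detergent screen) or 0.0001% Triton X-100 was preincubated with compounds for 15 min at room temperature. Nitrocefin was then added from an 800 uM solution, and hydrolysis was followed at 480 nm.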
Potency means the concentration at half of the fitted maximal effect; tags describe the fitted curve by direction and shape.

Row | Compound | Potency
1 | Cc1ccc(/C(N)=N/OC(=O)c2ccc(Cl)cc2Cl)cc1 | inconclusive: 3.16 µM [inhibitor, full curve, poor fit]
2 | Cc1cccc(-n2c(O)c(C=Nc3ccccc3N)c(=O)[nH]c2=O)c1 | inconclusive: 1.78 µM [inhibitor, partial curve, poor fit]
3 | COc1ccc(OC)c(C(=O)N2CCCC(Nc3ccc(F)cc3)C2)c1 (stereo not drawn) | inconclusive: 1.41 µM [inhibitor, full curve]
4 | COc1ccc(C(=O)Nc2ccccc2C(=O)Nc2cccnc2)cc1 | inactive
5 | COc1cc(C(=O)NC2CCCc3ccccc32)cc(OC)c1OC (stereo not drawn) | inconclusive: 10 µM [inhibitor, full curve, poor fit]
6 | COc1ccc(C(=O)COC(=O)/C=C/c2ccco2)cc1F | inactive
7 | Cc1ccc(/C=C2\C(=O)NC(=O)N2C)o1 | inconclusive: 4.47 µM [inhibitor, single point]
8 | CCCCCCC1CCC(C(=O)NC(C(=O)O)C(C)C)CC1 (stereo not drawn) | inactive
9 | Cc1ccccc1NC(=O)C(C)O/N=C/c1cccc([N+](=O)[O-])c1 (stereo not drawn) | inactive
10 | CCNC(=O)C(=O)Nc1ccc2c(c1)N(S(=O)(=O)c1cccs1)CCC2 | inconclusive: 89.1 µM [inhibitor, single point]
11 | CN(CC(=O)Nc1ccc(S(=O)(=O)N2CCOCC2)cc1)Cc1ccc(F)cc1 | inconclusive: 100 µM [inhibitor, single point]
12 | CC12CCC(C(=O)N(NC(=O)c3cccnc3)C1=O)C2(C)C (stereo not drawn) | inconclusive: 89.1 µM [inhibitor, single point]
13 | O=C(Nc1nccs1)c1c(O)c2c([nH]c1=O)CCCC2 | inactive
14 | CCc1cc(=O)oc2cc(C)cc(OC(C)C(=O)NCC(O)c3ccccc3)c12 (stereo not drawn) | inactive
15 | C=CCSc1nnc(NC(=O)c2ccc(S(=O)(=O)NCC3CCCO3)cc2)s1 (stereo not drawn) | inconclusive: 5.01 µM [inhibitor, single point]
16 | O=C(CN1CCOCC1)N1CCCc2c1c(=O)oc1ccc(OCc3ccccc3)cc21 | inconclusive: 2.24 µM [inhibitor, full curve, poor fit]
17 | O=C(CCS(=O)(=O)c1ccccc1)Nc1ccc(S(=O)(=O)Nc2ncccn2)cc1 | inconclusive: 2.24 µM [inhibitor, full curve, poor fit]
18 | CC(C)CCNC(=O)CN(C(=O)CCC(=O)Nc1ccccn1)c1ccc2c(c1)OCCO2 | inactive
19 | Cc1ccc(CNC(=O)c2ccc(CS(=O)(=O)c3ccccc3C)o2)cc1 | inconclusive: 100 µM [inhibitor, partial curve, poor fit] and inconclusive: 56.2 µM [inhibitor, partial curve]
20 | CN(C)c1ccc(CNC(=O)c2ccc3nc(CCc4ccccc4)oc3c2)cc1 | inactive
21 | Cc1ccc(C(=O)c2cnc3ccccc3c2-c2ccccc2)cc1 | inconclusive: 7.94 µM [inhibitor, full curve, poor fit]
22 | CN1C2CCC1/C(=C\c1ccc(F)cc1)C(=O)/C2=C/c1ccc(F)cc1 | inactive
23 | COc1ccc(CNS(=O)(=O)c2ccc(-n3cccn3)cc2)cc1 | inconclusive: 14.1 µM [inhibitor, full curve, poor fit]

Row | Compound | Potency
24 | CCCOC(=O)Nc1sc2c(c1C(=O)OCC)CCC2 | inconclusive: 0.631 µM [inhibitor, full curve]
25 | CCOC(=O)c1c(-c2ccccc2)csc1NC(=O)c1cc2ccccc2oc1=O | inconclusive: 63.1 µM [inhibitor, partial curve]
26 | Cc1ccc(-c2cc([C@H]3[C@@H]4C=CCC[C@@]4(C)C(=O)N3Cc3ccccc3)ccc2F)cc1 | inactive
27 | Cc1ccc(/C=C/c2onc(C)c2S(=O)(=O)N2CCC(C(=O)N(CCC(C)C)Cc3ccco3)CC2)cc1 | inactive
28 | CC1(C)CC(N2CCN(c3ccccc3)CC2)=CC(=[N+]2CCCC2)C1 | inconclusive: 6.31 µM [inhibitor, full curve, poor fit]
29 | Cc1ccc(CC2S/C(=C(/C#N)C(=O)N3CCOCC3)N(c3ccccc3)C2=O)cc1 (stereo not drawn) | inconclusive: 44.7 µM [inhibitor, full curve, poor fit]
30 | CC(=O)Nc1ccc2oc(-c3cc(F)c(F)cc3Cl)nc2c1 | inconclusive: 1.41 µM [inhibitor, full curve, poor fit]
31 | O=C(O)c1ccc(NC(=S)NC(=O)c2cccnc2)cc1 | inactive
32 | COc1cccc(N2C(=O)CC(=O)NC2=O)c1 | inconclusive: 6.31 µM [inhibitor, full curve, poor fit]
33 | CCCOc1ccc(CNC(=O)c2cc3ccccn3n2)cc1 | inactive
34 | COc1ccc(-c2cc3nc(C)n(N)c(=O)c3s2)cc1 | inactive
35 | O=C(N/N=C/c1ccc([N+](=O)[O-])o1)c1cc(-c2ccncc2)nc2ccccc12 | inactive
36 | COC(=O)C1=C(N)OC2=C(C(=O)CC(C)(C)C2)C1c1ccoc1 (stereo not drawn) | inconclusive: 39.8 µM [inhibitor, partial curve, poor fit]
37 | COc1ccc(-c2noc(C3CCCN(C(=O)c4ccc(F)cc4)C3)n2)cc1 (stereo not drawn) | inactive
38 | CCN(CC)c1ccc(NC(=O)C2CCCN(S(=O)(=O)c3cnc[nH]3)C2)c(C)c1 (stereo not drawn) | inconclusive: 3.98 µM [inhibitor, full curve, poor fit]
39 | COc1ccc(C)cc1NC(=O)Nc1ccccc1 | inactive
40 | CCCOC(=O)c1c(-c2ccc(C)cc2C)csc1NC(=O)C1C2CCC(O2)C1C(=O)O (stereo not drawn) | inconclusive: 100 µM [inhibitor, partial curve]
41 | CC(=O)Oc1ccc(/C=N/NC(=S)Nc2ccccc2)cc1 | inconclusive: 0.891 µM [inhibitor, full curve, poor fit]
42 | COc1cc2c(cc1OC)CN(C(C)C(=O)N1CCc3ccccc31)CC2 (stereo not drawn) | inconclusive: 11.2 µM [inhibitor, full curve, poor fit]
43 | Cc1ccc(N2C(=O)/C(=C/c3ccc(CN(CCC#N)S(C)(=O)=O)o3)C(=O)NC2=S)cc1C | inactive
44 | COc1cc(CC(=O)OCC(=O)NC2CCCC2)cc(OC)c1OC | inconclusive: 0.631 µM [inhibitor, full curve, poor fit]
45 | Oc1ccc(-c2nc(-c3ccc(O)c(O)c3)cs2)cc1 | inactive
46 | CNC(=S)N(Cc1ccc2c(c1)OCO2)C1CC(=O)N(c2ccc(F)cc2)C1=O (stereo not drawn) | inconclusive: 28.2 µM [inhibitor, full curve]

Row | Compound | Potency
47 | Cc1ccccc1-c1nnc2s/c(=C\c3ccc(N(C)C)cc3)c(=O)n12 | inconclusive: 44.7 µM [inhibitor, partial curve, poor fit]
48 | CCC1CN(C(=O)Nc2cc(Cl)ccc2C(=O)OC)c2ccccc2S1 (stereo not drawn) | inactive
49 | Cc1ccc(CNC(=O)Nc2ccccc2)c(C)c1 | inactive
50 | NNc1nc(-c2ccccc2)cc(-c2ccccc2O)n1 | inactive
51 | CCN(CC(=O)Nc1ccc2c(c1)OCCO2)C(=O)CSCC(=O)Nc1ccc(C)cc1 | inconclusive: 7.94 µM [inhibitor, full curve, poor fit]
52 | COc1ccc(OC)c(NC(=O)COCc2cc(-c3ccc(F)cc3)on2)c1 | inactive
53 | Cc1c(C)n(Cc2ccc(F)cc2)c2ccc(C(=O)N3CCN(c4ccccn4)CC3)cc12 | inconclusive: 100 µM [inhibitor, single point]
54 | CNc1nc(Cl)c(SC)c(NC2CCCCC2)n1 | inconclusive: 10 µM [inhibitor, full curve, poor fit]
55 | COc1ccc(OC)c(/C=N/NC(=O)c2ccc[n+](CC(=O)c3ccccc3)c2)c1 | inconclusive: 3.16 µM [inhibitor, full curve]
56 | COc1ccccc1C/C(N)=N/OC(=O)c1cccc([N+](=O)[O-])c1C | inactive
57 | COc1ccccc1-n1c(=O)n(C)c2c(C(N)=O)nc(-c3cc(OC)c(OC)c(OC)c3)nc21 | inactive
58 | CCC(C)NC(=O)C(NS(=O)(=O)c1ccc2c(c1)c(=O)n(C)c(=O)n2C)c1ccccc1 (stereo not drawn) | inconclusive: 44.7 µM [inhibitor, single point]
59 | CN1CCN(c2oc(-c3cccs3)nc2S(=O)(=O)c2ccccc2)CC1 | inconclusive: 0.794 µM [inhibitor, full curve, poor fit]
60 | CCN(CC)c1ccc(C(=O)OCC(=O)NC2CCCCC2C)cc1 (stereo not drawn) | inconclusive: 1.26 µM [inhibitor, full curve, poor fit]
61 | Nc1ccc(-c2c3ccc(=O)cc-3oc3cc(O)ccc23)cc1C(=O)O | inconclusive: 100 µM [inhibitor, partial curve, poor fit]
62 | CC1(c2ccc(OC(F)F)cc2)NC(=O)N(CC(=O)NCCC2=CCCCC2)C1=O (stereo not drawn) | inconclusive: 0.708 µM [inhibitor, full curve, poor fit]
63 | CC(C)C(=O)Nc1ccc(N2CCN(C(=O)c3cccs3)CC2)cc1 | inconclusive: 1.41 µM [inhibitor, full curve, poor fit]
64 | O=c1c2cnn(-c3ccccc3)c2ncn1Cc1ccco1 | inconclusive: 2.51 µM [inhibitor, full curve, poor fit]
65 | CN(C)C(CNS(=O)(=O)c1ccc(F)cc1)c1cccnc1 (stereo not drawn) | inconclusive: 3.16 µM [inhibitor, full curve, poor fit]
66 | C/C(=N\NC(=O)c1c[nH]c2ccccc12)c1ccc2c(c1)OCO2 | inactive
67 | COc1ccc(-c2cc(C(=O)Nc3cnn(Cc4ccc(F)cc4)c3)no2)cc1OC | inactive
68 | COC(=O)c1cc(Br)c(=O)n(-c2ccccn2)c1 | inconclusive: 2.82 µM [inhibitor, full curve, poor fit]

Reference: PubChem BioAssay AID485294 (National Center for Advancing Translational Sciences (NCATS), 2010)
